No constants are given. Whether binding was seen depends on the method and setting. In cells and extracts the contact can be indirect. Some results given as binding are weak or reduced against the parent protein; the word gives no strength. For some assays here: Where a sequence is shown, tags or fusion partners need not be part of it.
Columns and labels:
Numb-HA = Numb-HA (UniProt Q9QZS3); test: co-IP; 293 T cells transfected with Ptch1-EGFP and Numb-HA
[1] = target: Numb with deletion of the N-terminus (aa1-25) (UniProt Q9QZS3); test: co-IP; Numb truncated proteins tested with Ptch1; cells, tags and the precipitated partner not told in the text (Supplementary Fig. 5c)
[2] = target: Numb with deletion of the PTB domain (aa26-173) (UniProt Q9QZS3); test: as above
[3] = target: Numb N + PTB domain (aa1-173) (UniProt Q9QZS3); test: as above
[4] = target: endogenous Numb (mouse (endogenous in NIH3T3)) (UniProt Q9QZS3); test: co-IP; endogenous Numb immunoprecipitated from lysates of NIH3T3 cells treated with Shh; endogenous Ptch1 detected

The chains behind the UniProt entries cited, without tags or fusion partners. Where a name states a change or a piece, a line headed by the entry shows the natural chain unless it says otherwise. A line that says so, or that is headed by a name, gives the form on record, which may keep a tag or linker. Residues count along the entry.
UniProt Q9QZS3: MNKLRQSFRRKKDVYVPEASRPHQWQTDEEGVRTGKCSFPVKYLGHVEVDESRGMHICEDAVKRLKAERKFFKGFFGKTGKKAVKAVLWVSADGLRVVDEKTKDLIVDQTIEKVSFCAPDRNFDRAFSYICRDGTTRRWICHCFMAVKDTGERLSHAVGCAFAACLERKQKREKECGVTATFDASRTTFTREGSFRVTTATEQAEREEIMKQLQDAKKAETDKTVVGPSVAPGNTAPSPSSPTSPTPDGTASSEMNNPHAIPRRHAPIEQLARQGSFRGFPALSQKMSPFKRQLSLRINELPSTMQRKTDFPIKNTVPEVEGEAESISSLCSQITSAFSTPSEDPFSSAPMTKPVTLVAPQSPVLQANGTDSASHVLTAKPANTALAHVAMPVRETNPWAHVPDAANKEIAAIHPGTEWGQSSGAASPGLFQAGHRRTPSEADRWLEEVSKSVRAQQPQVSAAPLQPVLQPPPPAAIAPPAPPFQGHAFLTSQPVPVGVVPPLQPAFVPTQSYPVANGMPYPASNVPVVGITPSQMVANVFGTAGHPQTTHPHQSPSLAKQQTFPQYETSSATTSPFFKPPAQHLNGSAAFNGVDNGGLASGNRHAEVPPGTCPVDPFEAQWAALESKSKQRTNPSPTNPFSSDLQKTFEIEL
Numb N + PTB domain (aa1-173): residues 1-173 of Q9QZS3
Numb with deletion of the N-terminus (aa1-25): residues 26-653 of Q9QZS3
Numb with deletion of the PTB domain (aa26-173) (Q9QZS3, form named): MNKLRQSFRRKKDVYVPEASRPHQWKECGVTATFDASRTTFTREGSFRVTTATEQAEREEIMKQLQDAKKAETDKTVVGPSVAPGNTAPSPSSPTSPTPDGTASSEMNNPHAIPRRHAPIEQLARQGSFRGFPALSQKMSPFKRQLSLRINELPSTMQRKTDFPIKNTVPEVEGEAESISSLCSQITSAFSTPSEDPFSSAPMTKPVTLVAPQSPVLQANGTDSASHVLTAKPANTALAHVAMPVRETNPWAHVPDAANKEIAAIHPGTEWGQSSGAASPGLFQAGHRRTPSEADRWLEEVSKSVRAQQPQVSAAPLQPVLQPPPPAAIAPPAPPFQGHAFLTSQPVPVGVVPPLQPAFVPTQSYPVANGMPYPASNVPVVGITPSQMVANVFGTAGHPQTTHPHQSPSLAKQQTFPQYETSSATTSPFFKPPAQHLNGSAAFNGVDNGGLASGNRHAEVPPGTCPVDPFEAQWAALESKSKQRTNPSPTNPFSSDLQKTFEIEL

binding (Numb-HA)	binding [1]	binding [2]	binding [3]	binding [4]	Binder
binds	no binding	no binding	binds	–	Ptch1-EGFP (receptor, UniProt Q61115 1-1434) MASAGNAAGALGRQAGGGRRRRTGGPHRAAPDRDYLHRPSYCDAAFALEQISKGKATGRKAPLWLRAKFQRLLFKLGCYIQKNCGKFLVVGLLIFGAFAVGLKAANLETNVEELWVEVGGRVSRELNYTRQKIGEEAMFNPQLMIQTPKEEGANVLTTEALLQHLDSALQASRVHVYMYNRQWKLEHLCYKSGELITETGYMDQIIEYLYPCLIITPLDCFWEGAKLQSGTAYLLGKPPLRWTNFDPLEFLEELKKINYQVDSWEEMLNKAEVGHGYMDRPCLNPADPDCPATAPNKNSTKPLDVALVLNGGCQGLSRKYMHWQEELIVGGTVKNATGKLVSAHALQTMFQLMTPKQMYEHFRGYDYVSHINWNEDRAAAILEAWQRTYVEVVHQSVAPNSTQKVLPFTTTTLDDILKSFSDVSVIRVASGYLLMLAYACLTMLRWDCSKSQGAVGLAGVLLVALSVAAGLGLCSLIGISFNAATTQVLPFLALGVGVDDVFLLAHAFSETGQNKRIPFEDRTGECLKRTGASVALTSISNVTAFFMAALIPIPALRAFSLQAAVVVVFNFAMVLLIFPAILSMDLYRREDRRLDIFCCFTSPCVSRVIQVEPQAYTEPHSNTRYSPPPPYTSHSFAHETHITMQSTVQLRTEYDPHTHVYYTTAEPRSEISVQPVTVTQDNLSCQSPESTSSTRDLLSQFSDSSLHCLEPPCTKWTLSSFAEKHYAPFLLKPKAKVVVILLFLGLLGVSLYGTTRVRDGLDLTDIVPRETREYDFIAAQFKYFSFYNMYIVTQKADYPNIQHLLYDLHKSFSNVKYVMLEENKQLPQMWLHYFRDWLQGLQDAFDSDWETGRIMPNNYKNGSDDGVLAYKLLVQTGSRDKPIDISQLTKQRLVDADGIINPSAFYIYLTAWVSNDPVAYAASQANIRPHRPEWVHDKADYMPETRLRIPAAEPIEYAQFPFYLNGLRDTSDFVEAIEKVRVICNNYTSLGLSSYPNGYPFLFWEQYISLRHWLLLSISVVLACTFLVCAVFLLNPWTAGIIVMVLALMTVELFGMMGLIGIKLSAVPVVILIASVGIGVEFTVHVALAFLTAIGDKNHRAMLALEHMFAPVLDGAVSTLLGVLMLAGSEFDFIVRYFFAVLAILTVLGVLNGLVLLPVLLSFFGPCPEVSPANGLNRLPTPSPEPPPSVVRFAVPPGHTNNGSDSSDSEYSSQTTVSGISEELRQYEAQQGAGGPAHQVIVEATENPVFARSTVVHPDSRHQPPLTPRQQPHLDSGSLSPGRQGQQPRRDPPREGLRPPPYRPRRDAFEISTEGHSGPSNRDRSGPRGARSHNPRNPTSTAMGSSVPSYCQPITTVTASASVTVAVHPPPGPGRNPRGGPCPGYESYPETDHGVFEDPHVPFHVRCERRDSKVEVIELQDVECEERPWGSSSN
–	–	–	–	binds	endogenous Ptch1 (receptor, UniProt Q61115 1-1434) MASAGNAAGALGRQAGGGRRRRTGGPHRAAPDRDYLHRPSYCDAAFALEQISKGKATGRKAPLWLRAKFQRLLFKLGCYIQKNCGKFLVVGLLIFGAFAVGLKAANLETNVEELWVEVGGRVSRELNYTRQKIGEEAMFNPQLMIQTPKEEGANVLTTEALLQHLDSALQASRVHVYMYNRQWKLEHLCYKSGELITETGYMDQIIEYLYPCLIITPLDCFWEGAKLQSGTAYLLGKPPLRWTNFDPLEFLEELKKINYQVDSWEEMLNKAEVGHGYMDRPCLNPADPDCPATAPNKNSTKPLDVALVLNGGCQGLSRKYMHWQEELIVGGTVKNATGKLVSAHALQTMFQLMTPKQMYEHFRGYDYVSHINWNEDRAAAILEAWQRTYVEVVHQSVAPNSTQKVLPFTTTTLDDILKSFSDVSVIRVASGYLLMLAYACLTMLRWDCSKSQGAVGLAGVLLVALSVAAGLGLCSLIGISFNAATTQVLPFLALGVGVDDVFLLAHAFSETGQNKRIPFEDRTGECLKRTGASVALTSISNVTAFFMAALIPIPALRAFSLQAAVVVVFNFAMVLLIFPAILSMDLYRREDRRLDIFCCFTSPCVSRVIQVEPQAYTEPHSNTRYSPPPPYTSHSFAHETHITMQSTVQLRTEYDPHTHVYYTTAEPRSEISVQPVTVTQDNLSCQSPESTSSTRDLLSQFSDSSLHCLEPPCTKWTLSSFAEKHYAPFLLKPKAKVVVILLFLGLLGVSLYGTTRVRDGLDLTDIVPRETREYDFIAAQFKYFSFYNMYIVTQKADYPNIQHLLYDLHKSFSNVKYVMLEENKQLPQMWLHYFRDWLQGLQDAFDSDWETGRIMPNNYKNGSDDGVLAYKLLVQTGSRDKPIDISQLTKQRLVDADGIINPSAFYIYLTAWVSNDPVAYAASQANIRPHRPEWVHDKADYMPETRLRIPAAEPIEYAQFPFYLNGLRDTSDFVEAIEKVRVICNNYTSLGLSSYPNGYPFLFWEQYISLRHWLLLSISVVLACTFLVCAVFLLNPWTAGIIVMVLALMTVELFGMMGLIGIKLSAVPVVILIASVGIGVEFTVHVALAFLTAIGDKNHRAMLALEHMFAPVLDGAVSTLLGVLMLAGSEFDFIVRYFFAVLAILTVLGVLNGLVLLPVLLSFFGPCPEVSPANGLNRLPTPSPEPPPSVVRFAVPPGHTNNGSDSSDSEYSSQTTVSGISEELRQYEAQQGAGGPAHQVIVEATENPVFARSTVVHPDSRHQPPLTPRQQPHLDSGSLSPGRQGQQPRRDPPREGLRPPPYRPRRDAFEISTEGHSGPSNRDRSGPRGARSHNPRNPTSTAMGSSVPSYCQPITTVTASASVTVAVHPPPGPGRNPRGGPCPGYESYPETDHGVFEDPHVPFHVRCERRDSKVEVIELQDVECEERPWGSSSN

Source: article PMC11045789
